Assay results taken from patent US20250230255A1 (BIOTHEUS, published 2025).
Where two headings read alike, the source gives them in different places. One block for each binder: values may come before it.

Experiments:
[1] = biological target: T1, human CD39 (recombinant protein in solution) (human, UniProt P49961 38-478, limits assumed); assay: cell-based or functional assay
T1 sequence: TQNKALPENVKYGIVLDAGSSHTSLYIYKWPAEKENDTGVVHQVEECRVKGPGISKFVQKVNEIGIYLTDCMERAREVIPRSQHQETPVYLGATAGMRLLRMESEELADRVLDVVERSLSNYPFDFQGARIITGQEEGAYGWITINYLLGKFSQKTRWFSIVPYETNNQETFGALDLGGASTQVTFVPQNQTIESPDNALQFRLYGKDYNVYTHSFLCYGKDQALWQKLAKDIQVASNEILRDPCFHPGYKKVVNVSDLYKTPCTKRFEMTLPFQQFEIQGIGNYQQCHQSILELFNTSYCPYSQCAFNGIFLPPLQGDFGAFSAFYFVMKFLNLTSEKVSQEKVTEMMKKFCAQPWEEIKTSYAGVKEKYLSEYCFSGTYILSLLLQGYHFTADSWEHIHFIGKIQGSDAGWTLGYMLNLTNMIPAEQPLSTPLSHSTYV

[2] = biological target: T1, human CD39 (recombinant protein in …); assay: BLI (ForteBio), method of Example 3, human CD39 in solution
Procedure: (§1) ForteBio affinity test was conducted according to the existing methods (Estep, P et al., High throughput solution based measurement of antibody-antigen affinity and affinity binding. MAbs, 2013.5 (2): p. 270-8). In short, the sensor is balanced offline in the analysis buffer for 30 min, and then tested online for 60 s to establish baseline. After that, the AHQ sensor is online loaded with the above-obtained purified antibody, and put into 100 nM human CD39 (SEQ ID NO: 28) for 5 min, and then transferred the sensor to PBS for dissociation for 5 min. A 1:1 binding model is used for the dynamic analysis.
The humanized sequences are subjected to the humanized antibody vector construction, expression and purification according to the method described in Example 2. […] The purified humanized antibodies were subjected to the affinity test at protein level according to the method described in Example 3.

[3] = biological target: T1, human CD39 (recombinant protein in …); assay: as above; remark: listed apart in the source
Procedure: as §1

human CD39 on cells [4] = biological target: T2, human CD39 on cells (human, UniProt P49961 1-510); assay: flow cytometry on CHO-hCD39 cells, MFI titration
T2 construct: also called CHO-hCD39 cells; huCD39 overexpression cells
T2 sequence: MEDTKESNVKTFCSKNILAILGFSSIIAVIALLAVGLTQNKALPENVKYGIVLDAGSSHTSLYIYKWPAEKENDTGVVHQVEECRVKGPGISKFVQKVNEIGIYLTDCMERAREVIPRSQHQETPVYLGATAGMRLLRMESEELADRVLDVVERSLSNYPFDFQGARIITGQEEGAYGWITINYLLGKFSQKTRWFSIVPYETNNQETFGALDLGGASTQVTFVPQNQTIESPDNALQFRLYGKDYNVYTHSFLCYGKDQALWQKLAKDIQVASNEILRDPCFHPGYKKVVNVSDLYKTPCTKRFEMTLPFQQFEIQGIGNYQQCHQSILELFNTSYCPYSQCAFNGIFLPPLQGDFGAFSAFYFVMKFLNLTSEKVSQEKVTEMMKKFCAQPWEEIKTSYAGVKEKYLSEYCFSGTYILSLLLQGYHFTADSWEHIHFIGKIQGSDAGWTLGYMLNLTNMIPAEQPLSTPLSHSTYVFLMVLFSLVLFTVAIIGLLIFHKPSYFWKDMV

cynomolgus CD39 on cells [5] = biological target: T3, cynomolgus CD39 on cells (cynomolgus, UniProt P49961 6-510 (human entry)); assay: flow cytometry on CHO-cyCD39 cells, MFI titration
T3 construct: also called cyCD39; CHO-cyCD39 cells
T3 chain: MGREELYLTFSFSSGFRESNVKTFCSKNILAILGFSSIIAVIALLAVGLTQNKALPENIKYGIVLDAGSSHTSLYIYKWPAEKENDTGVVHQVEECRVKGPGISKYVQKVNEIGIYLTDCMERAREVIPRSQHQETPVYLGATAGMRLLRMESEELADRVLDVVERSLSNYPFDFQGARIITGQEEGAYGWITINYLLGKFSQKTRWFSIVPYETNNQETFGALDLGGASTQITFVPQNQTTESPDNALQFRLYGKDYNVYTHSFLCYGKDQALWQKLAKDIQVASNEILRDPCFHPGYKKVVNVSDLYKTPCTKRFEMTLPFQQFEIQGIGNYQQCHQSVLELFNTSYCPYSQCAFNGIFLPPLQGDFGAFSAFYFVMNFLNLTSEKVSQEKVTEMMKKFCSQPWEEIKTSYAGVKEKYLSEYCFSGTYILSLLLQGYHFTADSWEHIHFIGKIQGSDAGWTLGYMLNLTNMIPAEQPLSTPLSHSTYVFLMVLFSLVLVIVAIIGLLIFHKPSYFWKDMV

human CD39 on cells [6] = biological target: T2, human CD39 on cells; assay: cell-based or functional assay
[7] = biological target: T1, human CD39 (recombinant protein in …); assay: BLI (ForteBio), antibody loaded on AHQ sensor, 100 nM human CD39 in solution, 1:1 model
Procedure: as §1

human CD39 on cells [8] = biological target: T2, human CD39 on cells; assay: cell-based or functional assay; remark: listed apart in the source
human CD39 on cells [9] = biological target: T2, human CD39 on cells; assay: cell-based or functional assay; remark: listed apart in the source
cynomolgus CD39 on cells [10] = biological target: T3, cynomolgus CD39 on cells; assay: flow cytometry on CHO-cyCD39 cells, MFI titration
[11] = biological target: T1, human CD39 (recombinant protein in …); assay: cell-based or functional assay; remark: listed apart in the source
human CD39 on cells [12] = biological target: T2, human CD39 on cells; assay: flow cytometry on CHO-hCD39 cells, MFI titration; remark: listed apart in the source
human PD-1 on cells = biological target: T4, human PD-1 on cells (human, UniProt Q15116 25-288); assay: flow cytometry on CHOS cells overexpressing human PD1, median fluorescence intensity PE-A
human PD-1 on cells, sequence (Q15116 25-288 limits assumed): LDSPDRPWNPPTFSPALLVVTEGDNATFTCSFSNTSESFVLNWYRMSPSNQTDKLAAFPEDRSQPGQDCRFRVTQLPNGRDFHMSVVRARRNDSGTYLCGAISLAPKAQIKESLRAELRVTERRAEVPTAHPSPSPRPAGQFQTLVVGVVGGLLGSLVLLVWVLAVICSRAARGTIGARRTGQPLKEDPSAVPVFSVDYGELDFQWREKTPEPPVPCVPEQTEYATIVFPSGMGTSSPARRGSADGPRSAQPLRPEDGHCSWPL
T4 construct: also called CHO-hPD1 cell

cynomolgus CD39 on cells [13] = biological target: T3, cynomolgus CD39 on cells; assay: flow cytometry on CHO-cyCD39 cells, median fluorescence intensity PE-A
human CD39 on cells [14] = biological target: T2, human CD39 on cells; assay: flow cytometry on CHO-hCD39 cells, median fluorescence intensity PE-A
cynomolgus PD-1 on cells = biological target: T5, cynomolgus PD-1 on cells (cynomolgus, UniProt Q15116 25-288 (human entry)); assay: flow cytometry on CHOS cells overexpressing cynomolgus PD1, median fluorescence intensity PE-A
T5 construct: also called CHO-cynoPD1 cell
T5 chain: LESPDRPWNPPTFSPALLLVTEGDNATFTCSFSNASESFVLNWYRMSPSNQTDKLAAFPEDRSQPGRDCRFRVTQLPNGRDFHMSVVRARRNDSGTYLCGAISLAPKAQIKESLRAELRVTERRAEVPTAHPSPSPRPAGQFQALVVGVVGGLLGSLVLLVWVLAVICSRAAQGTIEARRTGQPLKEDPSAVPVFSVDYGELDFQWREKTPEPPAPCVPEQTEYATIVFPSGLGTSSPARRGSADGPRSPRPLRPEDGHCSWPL

human CD39 on cells [15] = biological target: T2, human CD39 on cells; assay: cell-based or functional assay; remark: listed apart in the source

EC50 of blocking enzyme activity of soluble CD39 [1]: 3.15 nM | Kd [2]: 3.5 nM | koff [2]: 0.00108 s⁻¹ | kon [2]: 311000 M⁻¹ s⁻¹ | Kd [3]: 6.81 nM | koff [3]: 0.00197 s⁻¹ | kon [3]: 289000 M⁻¹ s⁻¹ | EC50 (human CD39 on cells [4]): 7.22 nM | EC50 (cynomolgus CD39 on cells [5]): 5.13 nM | EC50 of blocking CD39 enzyme activity in PBMC system (human CD39 on cells [6]): 4.95 nM | koff [7]: ~0.00121 s⁻¹ | kon [7]: 125000 M⁻¹ s⁻¹ | EC50 of blocking CD39 enzyme activity of human CD39 overexpression cells (human CD39 on cells [8]): 3.79 nM | EC50 of blocking CD39 enzyme activity in human CD39 overexpression cells (ATP, CellTiter-Glo) (human CD39 on cells [9]): 36.5 nM | EC50 (cynomolgus CD39 on cells [10]): 4.94 nM | EC50 of blocking enzyme activity of soluble human CD39 [11]: 18.6 nM | EC50 (human CD39 on cells [12]): 7.7 nM
B1: R-Ye-19(1)-037 (Fc fusion)
chain: QVQLQESGGGLVQAGGSLRLACTVSRGTFSEYSMGWFRQAPGQERDFVTAISGFGHITHYADSVKGRFTISRDNAANTVYLQMNTLKPEDTAVYYCAAAWQTSPRRMMQMAGSITWGQGTQVTVSS[human IgG1 Fc with changes cut from this listing]
notes: also called anti-CD39 nanobody

Kd [3]: 0.374 nM | koff [3]: 0.000114 s⁻¹ | kon [3]: 305000 M⁻¹ s⁻¹ | binding result (human PD-1 on cells): no binding (tested: 200 nM) | EC50 (read off the curve) (cynomolgus CD39 on cells [13]): ~20 nM | EC50 (read off the curve) (human CD39 on cells [14]): ~20 nM | binding result (cynomolgus PD-1 on cells): no binding (tested: 200 nM)
B2: Fc-37-46 (bispecific antibody)
chain: [human IgG1 Fc with changes cut from this listing]GGGGAGGGGAGGGGAGGGGAEVQLLESGGGLVQPGGSLRLSCAVSRGTFSEYSMSWFRQAPGKEREFVTAISGFGHITHYADSVKGRFTISRDNSKNTVYLQMNSLRAEDTAVYYCAAAWQTSPRRMMQMAGSITWGQGTQVTVSSGGGGAGGGGAGGGGAGGGGAGGGGAGGGGAGGGGAEVQLLESGGGLVQPGGSLRLSCAASGDIFSINYMSWYRQAPGNERELVAAITGRGNTNYADSVKGRFTISRDNSKNTVYLQMNSLRAEDTAVYYCNAWDYSDADEGPLREYDYWGQGTQVTVSSA
notes: also called bi-epitopic anti-CD39 antibody with Fc-C-terminal structure

EC50 of blocking enzyme activity of soluble CD39 [1]: 2.48 nM | Kd [2]: 0.63 nM | koff [2]: 0.000181 s⁻¹ | kon [2]: 289000 M⁻¹ s⁻¹ | Kd [3]: 2.72 nM | koff [3]: 0.00094 s⁻¹ | kon [3]: 346000 M⁻¹ s⁻¹ | EC50 (human CD39 on cells [4]): 5.14 nM | EC50 (cynomolgus CD39 on cells [5]): 6 nM | EC50 of blocking CD39 enzyme activity in PBMC system (human CD39 on cells [6]): 2.04 nM | Kd [7]: 1.24 nM | koff [7]: 0.000529 s⁻¹ | kon [7]: 421000 M⁻¹ s⁻¹ | EC50 of blocking CD39 enzyme activity of human CD39 overexpression cells (human CD39 on cells [8]): 2.87 nM | EC50 of blocking CD39 enzyme activity in human CD39 overexpression cells (ATP, CellTiter-Glo) (human CD39 on cells [9]): 13.8 nM | EC50 of blocking CD39 enzyme activity in PBMC system (human CD39 on cells [15]): 13.8 nM | EC50 (cynomolgus CD39 on cells [10]): 3.03 nM | EC50 of blocking enzyme activity of soluble human CD39 [11]: 16.6 nM | EC50 (human CD39 on cells [12]): 5.96 nM
B3: R-Ye-19(1)-046 (Fc fusion)
chain: QVQLQESGGGLVQTGRSLRLSCAASGDIFSINYMGWYRQAPGNERELVAAITGRGNTNYADSVKGRFTISRDNAKNTVYLQMNSLKPEDTAVYYCNAWDYSDYDEGPLREYDYWGQGTQVTVSS[human IgG1 Fc with changes cut from this listing]
notes: as for B1
